We go through seven substances from publication PMC9759531, “USP5-Beclin 1 axis overrides p53-dependent senescence and drives Kras-induced tumorigenicity” (Nature Communications, 2022).

The chains behind the UniProt entries cited, without tags or fusion partners. Where a name states a change or a piece, a line headed by the entry shows the natural chain unless it says otherwise.
UniProt Q14457: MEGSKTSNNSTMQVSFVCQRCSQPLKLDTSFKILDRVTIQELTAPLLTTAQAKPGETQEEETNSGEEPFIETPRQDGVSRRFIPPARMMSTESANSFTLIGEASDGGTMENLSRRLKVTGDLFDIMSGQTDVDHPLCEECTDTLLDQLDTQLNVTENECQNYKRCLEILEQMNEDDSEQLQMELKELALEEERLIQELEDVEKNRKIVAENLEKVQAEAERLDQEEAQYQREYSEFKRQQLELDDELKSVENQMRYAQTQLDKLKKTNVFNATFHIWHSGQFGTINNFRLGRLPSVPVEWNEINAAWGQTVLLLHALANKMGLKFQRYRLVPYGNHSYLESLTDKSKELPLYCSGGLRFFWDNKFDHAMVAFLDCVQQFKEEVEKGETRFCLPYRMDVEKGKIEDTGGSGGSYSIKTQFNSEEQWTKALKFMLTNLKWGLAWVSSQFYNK
UniProt P45974: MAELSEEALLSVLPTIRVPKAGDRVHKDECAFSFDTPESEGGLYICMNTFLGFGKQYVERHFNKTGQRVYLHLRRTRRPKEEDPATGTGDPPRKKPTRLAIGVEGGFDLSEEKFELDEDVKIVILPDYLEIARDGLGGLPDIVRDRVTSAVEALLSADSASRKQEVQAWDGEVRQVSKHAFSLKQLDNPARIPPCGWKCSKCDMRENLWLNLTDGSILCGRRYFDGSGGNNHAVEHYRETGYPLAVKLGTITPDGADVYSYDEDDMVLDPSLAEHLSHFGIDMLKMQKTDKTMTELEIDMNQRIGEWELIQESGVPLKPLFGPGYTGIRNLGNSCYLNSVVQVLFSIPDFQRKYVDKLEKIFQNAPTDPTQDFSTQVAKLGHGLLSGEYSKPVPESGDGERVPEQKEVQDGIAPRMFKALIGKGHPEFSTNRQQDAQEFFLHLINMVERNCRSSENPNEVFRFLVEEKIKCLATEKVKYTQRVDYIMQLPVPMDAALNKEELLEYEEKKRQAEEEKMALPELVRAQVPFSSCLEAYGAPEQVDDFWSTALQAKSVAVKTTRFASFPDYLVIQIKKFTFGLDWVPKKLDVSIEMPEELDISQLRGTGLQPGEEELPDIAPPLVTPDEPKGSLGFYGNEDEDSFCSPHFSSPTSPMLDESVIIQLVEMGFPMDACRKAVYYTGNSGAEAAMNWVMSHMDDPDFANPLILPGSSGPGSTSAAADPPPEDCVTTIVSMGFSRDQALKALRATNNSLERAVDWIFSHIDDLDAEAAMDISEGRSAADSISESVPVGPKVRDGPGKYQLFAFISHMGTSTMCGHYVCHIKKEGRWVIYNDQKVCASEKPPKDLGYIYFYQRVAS
UniProt Q00987: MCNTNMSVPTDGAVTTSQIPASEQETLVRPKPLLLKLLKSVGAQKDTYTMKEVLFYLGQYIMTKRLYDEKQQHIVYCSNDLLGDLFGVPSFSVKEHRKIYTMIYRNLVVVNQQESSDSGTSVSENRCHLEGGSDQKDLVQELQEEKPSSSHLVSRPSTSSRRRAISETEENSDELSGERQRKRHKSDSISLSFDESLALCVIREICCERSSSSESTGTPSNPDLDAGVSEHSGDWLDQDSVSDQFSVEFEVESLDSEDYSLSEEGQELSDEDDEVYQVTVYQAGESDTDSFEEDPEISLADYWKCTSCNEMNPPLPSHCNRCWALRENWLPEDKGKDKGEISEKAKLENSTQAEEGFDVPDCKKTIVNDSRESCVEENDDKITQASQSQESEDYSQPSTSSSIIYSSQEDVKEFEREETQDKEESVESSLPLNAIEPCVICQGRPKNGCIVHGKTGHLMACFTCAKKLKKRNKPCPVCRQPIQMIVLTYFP

These are yes or no findings as the source states them, for the method shown. For some of these results: Binding seen in cells or lysates may run through a third protein. Some results given as binding are weak or reduced against the parent protein; the word gives no strength.

Assay [1] deals with Beclin 1 (endogenous) (human (endogenous in A549)) (UniProt Q14457). In words: co-IP; endogenous proteins in A549 (Fig. 2d, 4m) or A549/H292 lysates (Fig. 4p, with shBeclin 1 knock-down); IP lysis buffer 20 mM Tris-HCl, 125 mM NaCl, 5 mM MgCl2, 0.2 mM EDTA, 12% glycerol, 0.25% NP-40; primary antibodies 6 h at 4 °C, then protein A/G beads 2 h; western blot.
The target of assay [2] is Flag-Beclin 1 (FL) (UniProt Q14457). In words: co-IP; 293FT cells transfected with tagged constructs; anti-HA/Flag beads added to total lysate for 6 h; western blot; 20 μM MG132 before harvest in Fig. 4t. (In general: In western blotting, separated proteins are transferred to a membrane and probed.)
For assay [3], the target named is USP5 (endogenous) (human (endogenous in A549 and H292)) (UniProt P45974). In words: SDS-PAGE without DTT (non-reducing) and western blot; total lysates of H292-KRAS^G12V cells, or of A549 cells treated with H2O2 for 10 min; SDS-PAGE with or without DTT (100 mM) in the loading buffer; slower-migrating USP5 band without DTT read as disulfide-linked dimer.
Assay [4] shares this target. In words: condition: only cells treated with 5 mM NAC for 24 h; SDS-PAGE without DTT (non-reducing) and western blot; total lysates of H292-KRAS^G12V cells treated with 5 mM NAC for 24 h; SDS-PAGE with or without DTT (100 mM) in the loading buffer.
The target of assay [5] is USP5^C195A-HA (stably expressed in H292-KRAS^G12V or A549) (human) (UniProt P45974). In words: SDS-PAGE without DTT (non-reducing) and western blot; total lysates of H292-KRAS^G12V cells, or of A549 cells treated with H2O2 for 10 min; SDS-PAGE with or without DTT (100 mM) in the loading buffer; slower-migrating USP5 band without DTT read as disulfide-linked dimer.
Assay [6] concerns the target USP5-HA (stably expressed in H292-KRAS^G12V or A549) (human) (UniProt P45974). The description is as above.
Assay [7] has as its target His-USP5^C195A (purified recombinant) (human) (UniProt P45974). As to the kind of experiment: SEC; 1 mg purified His-USP5 or His-USP5^C195A in 200 μL treated with 1 mM H2O2 for 10 min on ice, loaded on Superdex 200 increase 10/300 GL at 4 °C; peaks of dimers and monomers collected; both purified. A general note: In gel filtration, larger molecules generally elute earlier.

For assay [8] the target is unchanged. As to the kind of experiment: SDS-PAGE without DTT (non-reducing) and western blot; purified recombinant His-USP5 or His-USP5^C195A in PBS treated with H2O2 for 10 min; SDS-PAGE with or without DTT (Fig. 5g, Supplementary Fig. S5e); western blot of H2O2-treated protein (Fig. 5k); both purified.

Consider “MDM2 (endogenous) (from UniProt Q00987 1-491) (enzyme)”, for which the binding result in assay [1] is given as “binds”. As to “MDM2-HA (FL) (from UniProt Q00987 1-491) (enzyme)”, the binding entry in assay [2] is recorded as “binds”.

“USP5 (endogenous) (from UniProt P45974 1-858) (enzyme)”: the figures for the binding result in assay [3], in assay [4] and in assay [1] were “binds”, “no binding” and “binds”, respectively.

On to “USP5^C195A-HA (stably expressed in H292-KRAS^G12V or A549) (from UniProt P45974 1-858) (enzyme)”, for which the binding result in assay [5] is recorded as “no binding”.

As for “USP5-HA (stably expressed in H292-KRAS^G12V or A549) (from UniProt P45974 1-858) (enzyme)”, the binding entry in assay [6] is given as “binds”.

As to “USP5-HA (293FT) (from UniProt P45974 1-858) (enzyme)”, the binding result in assay [2] is “binds”. Consider “His-USP5^C195A (purified recombinant) (from UniProt P45974 1-858) (enzyme)”, for which the results for the binding result in assay [7] and in assay [8] were “no binding (tested: 1 mg in 200 μL)” and “no binding”, respectively.
